From the RNAGym collection of RNA variant scans (doi:10.7554/elife.90254)
Read counts are not given, so values of variants with three or more changes are uncertain.

B1: LINE1-mini (parent)
chain: GGCAGAGCUCAACACAGCGUGGCAAAGUGGCUGUGGCUAGACUGCC

Variants of: B1
Test: self-cleavage, relative activity (ratio to wild type); higher = more cleavage; in vitro, sequencing; the parent is a self-cleaving ribozyme

Variant | self-cleavage
GGUAUAGUUCAACACAGCGUGGCAAAGUGGCUGUGGCUAGAAUGCG | 0.09
GGUAGAGCUCAACACAGCGUGGUAAAGUGGCUGAGGCUAGACUGCC | 0.06
GGUACAGAGCAAGACAGCGUUGCAAAGUGGCUGUGGCUAGACUGCC | 0.47
GGUAGAGCUCAACACAGCGUGGCAAAGUGGUUGUGGCUAGACUCCC | 0.02
GGUAUAGCUCAACCCAGCGUGGCGAAGUGGCUGUGGCUGGACUGUC | 0.13
GGUAGAGCUCAACACAGCGUGGCAAAGUGGAUGUGGCUGGACUGCC | 0.02
GGUACAGCUCAACACAGCGUGGCAAAGUGGCUGUGGCUACACUGCC | 0.08
GGUAUAGCUCAACACAGUGUGGCAAAGUGGCGGUGGCUAGAAUGCC | 0.05
GGUACAGCUCAACACAGAGUGGCAAAGUGGCUGUGGCUAGACUGCA | 0.05
GGUAUAGUCCAACACAGCUUGGCAAAGUGGCUGUGGCUAGACUGCC | 0.11
GGUAAAGCUCAACACAGCGUGGCAAAGUGGCACUGGCUAUACUGCC | 0.1
GGUAGAGCUCAACACAGUGUGGCAAAGUGGCUGUUGCUUGACUGCC | 0.14
GGUAGAGCUCAACACAGCGUGGUAAAGUGGCUGUGGCUAGAGCGCC | 0.16
GGUAGAGCUCAACACAGCGUGGUGAAGUGGCUGUGGCUAGACUGCC | 0.58
GGUAGAGCUCAACACAGUGUGACAAACUGGCUGUGGCUAGACUGCC | 0.08
GGUAGAGCUCAACACAGCGUGGAAAAGUGGCUGAGGCUAGACUGAU | 0.04
GGUAGAGCUCAACACAGCGUGGCAAAGUGGGUGUGUCUAGACUGCG | 0.1
GGUACACCUCAACACAGCGUGGCAAAGUGGCUGUAGCUAGACUGCC | 0.1
GGUAGAGCUCAACACAGAGUGGUAAAGUGGCUGUGGCUAGACUGCC | 0.1

Variant | self-cleavage
GGUAUAGCUCAACACAGCGUGGCAAAGUGGAUGUUGCGAGACUGCC | 0.18
GGUAGAGCUCAACACAGCGUGGCAAAGUGGCUGUGGAUUGACUGCC | 0.29
GGUAUAGCGCAAUACAGCGUGGGAAAGUGGCCGUGGCUAGACUGUC | 0.02
GGUAUAGCUCAAAACAGUGUGGCAAAGUGGCUGUGGCUAGACUGCC | 0.06
GGUACAGCUCAAGACAACGCGGCAAAGUGGCUGUGGCUAGACUGCC | 0.05
GGUAGAGCUCAACACAGCGUGGCAAAGUGGGUCUGGCUAGACUGCC | 0.01
GGUAGAGCUCAACACAGUGUGGCAAAGUGGCUGUGGAGACACUGCC | 0.03
GGUAGAGCUCAACACAGGGUGGCAAAGUGGCUGUGGCUAGACUGCG | 0.21
GGUACAGCUCAACACAGCAUGGCCAAGUGGCUGUGGCUAGACUGCC | 0
GGUAGAGCUCAACACAGAGUGGCAAAGUGGCUGAGGCUAGACUGCC | 0.07
GGUAGAACUCAACACAGCGUGGCAAAGUGGCUGUGGCUAGCCUGGC | 0.21
GGUACAGCUCAACACAGCGUAGCAAAGUGGAUGUGGCUAGACUGCC | 0
GGUAUAGCUCAACACAGCGUGGAAAAGUCGCUGUGGCUAGACUGCC | 0
GGUAGAGCUCAACACAGCGUGGGAAAGUGACUGUGGCUAGACUGCC | 0.41
GGUAGAGCUCAACACAGUGUGGCAUAGUGGUUGUGGCUAGAGUGCC | 0.03
GGUAGAGCUCAACACAGUAUGGCGAAGUGGCUGUGGCUAGACUGCC | 0.07
GGUAUAGCUCAACACAGCGUGGCAAAGUUGCUGUGGCUAGACUGCC | 0.09
GGUAGAGCUCAACACAGCGUGGAAAAGUCGCUGUGUUUAGUCUGCC | 0.01
GGUACAGCUCAACUCAGCGUGGCAAAGUGGCUGUCGCUAGACUGGC | 0.06

Variant | self-cleavage
GGUAGAACUCAACACAGCGUGGCAAAGUGGCUGUCGCUAGACUGCC | 0.07
GGUAGAGCUCAACACAGUGUGGCAAAGUGGCUCUGCCUAGACUGCC | 0.02
GGUAUAGGUCAACACAGCGUGGCAAAGUGGCUUUGGCUAGACUGCC | 0.22
GGUAGAGCUCAACACAGCGUGGUAGAGUAGCUGUGGCUAGACUGCC | 0.62
GGUAGAACUCAACACAGCGUUGCAAAGUGGCUGUGGCUAGACUGCC | 0.09
GGUAUUGCUCAACACAGCGUGGCAAAGUGGCUGUGGCUAGACUGCC | 1.3
GGUAGAACUCAAUACAGCGUGGCAAAGUGGUUUUGGCUAAACUGCC | 0.07
GGUAAAGCUCAACACAGCGUUGCAAAGAGGCUGUGGCUAUACUGCC | 0.05
GGUAGAGCUCAACACAGAGUGGCAAAGUGGCUGUGUCUAGACUUCC | 0.01
GGUAUAGCUAAACACAGCGUGGAAAAGUGGCUGUGGCUAGACUGCC | 0.02
GGUAAAGCUCAACACAGCGUGGCAAAGUGGCUGUGGCUAGCCUGCC | 0.07
GGUAGAGCUCAACACAGUGUGGCAAAGUGGCUGUGGCUAGACUCCC | 0.18
GGUAGAGCUCAACACAGGGUUGCAAAGUGGCUGUGGGUAGACUGGC | 0.33
GGUAAAGCUCAACACAGCGUGGCAAAGUGGAUGUGGCUAGACUGCC | 0.1
GGUAGAACUCAAUACAGCGUGGCAAAGUGGCUGUGGCUAGACUGCC | 0.1
GGUAGAGCUCAACACAGCGUGGAAAAGUGGCUGUGGCUAGACAGCC | 0.07
GGUAGAGCUCAACACAGCGUGGCAAAGUGGCUGUGGUUAGAAUGCC | 0.03
GGUAGAACUUAACACAGCGUGGCAAAGUGGCUGUGGCUAGACUGCC | 0.44
